# The campaign covered roughly 410,000 compounds. About 1,200 (0.29%) were called active. Inconclusive means that the source gave no clear call. Such entries were picked first, then a sample of the others. Calls come from the whole dose curve; as a rule, active = well fitted activation curve with a large enough effect; inconclusive = small, poorly fitted or top-dose-only effect; inactive = flat fitted curve, though single readings scatter. Potencies beside an inconclusive call are fits to weak or partial responses and may not hold up.
# Test: qHTS of Nrf2 Activators; note: nearly all actives have a fitted effect of over 65% in size; for activation: % of control where 0% means no effect
# Conditions: AREc32 ARE-luciferase reporter (MCF7-derived line), luminescence, 24 h; activation: at 46.1 µM (top of the series)
# Procedure, shortened: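 ARE-driven firefly luciferase activity in AREc32 cells measured after a 24 hr compound exposure at 37 deg C, using Steady-Glo reagent and a 30 min room-temperature hold.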
# Potency is the fitted concentration of half-maximal effect; tags give direction and shape of the fitted curve.
Structure (SMILES),activation,Potency
COC(=O)c1ccccc1NC(=O)C(=O)NCC1CCCO1 (configuration not stated),inactive: 2.32%,–
CCCCOC(=O)c1ccc(NC(=O)COC(=O)C2CSC3(C)CCC(=O)N23)cc1 (configuration not stated),inactive: 2.59%,–
O=C(Nc1ccccc1)/C(=C\c1ccco1)NC(=O)c1ccco1,–,"inconclusive: 22.4 µM [activator, single point]"
Cn1nnnc1Sc1c(Cl)cccc1[N+](=O)[O-],–,"inconclusive: 11.2 µM [activator, partial curve, poor fit]"
Cc1n[nH]c(=S)n1/N=C/c1ccc(-c2ccccc2[N+](=O)[O-])o1,–,active: 10 µM
O=C(Nc1cccc([N+](=O)[O-])c1)c1ccc(CSc2ccccc2)cc1,–,"inconclusive: 3.55 µM [activator, partial curve, poor fit]"
Cc1cccc(C2C=C(c3ccc(F)cc3)Nc3nc4ccccc4n32)c1 (configuration not stated),–,"inconclusive: 12.6 µM [activator, partial curve, poor fit]"
Cc1[nH]c2ccccc2c(=O)c1C(=O)/C=C/c1ccccc1,–,"inconclusive: 2.82 µM [activator, single point]"
Cc1nnc2c3ccccc3c(Cl)nn12,–,"inconclusive: 31.6 µM [activator, single point]"
CC(C)[C@H](NC(=O)OC(C)(C)C)c1nnc(S(=O)(=O)Cc2c(F)cccc2Cl)o1,–,"inconclusive: 22.4 µM [activator, single point]"
O=[N+]([O-])c1ccc(C=Nc2cccc3ccccc23)s1,–,"inconclusive: 17.8 µM [activator, single point]"
O=C(c1ccco1)n1nc(-c2ccccc2)nc1NCc1ccccc1Cl,inactive: -0.401%,–
COc1ccccc1C(OC(=O)c1cccs1)C(=O)NCc1ccco1 (configuration not stated),inactive: 16%,–
Cn1nc(C(=O)Nc2ccc3c(c2)OCO3)c2ccccc2c1=O,–,"inconclusive: 14.1 µM [activator, partial curve, poor fit]"
CN1C=CC(=O)[C@@H](OC(=O)Nc2ccc(Br)cc2)[C@H]1c1ccccc1Br,inactive: 5.17%,–
CC(C)CC(NC(=O)C1CCC(C)CC1)C(=O)Nc1ccccn1 (configuration not stated),–,"inconclusive: 31.6 µM [activator, single point]"
O=[N+]([O-])c1ccccc1/C=C/C=N/n1c(-c2ccco2)n[nH]c1=S,–,active: 10 µM
COc1ccc(OCCC(=O)Nc2ccccc2)cc1,inactive: 0.801%,–
CN(c1cccc(NC(=O)CN(c2ccc(F)cc2)S(C)(=O)=O)c1)S(C)(=O)=O,inactive: 0.155%,–
O=S(=O)(c1cccc(-c2cn3cc(Cl)ccc3n2)c1)N1CCOCC1,inactive: 0.0502%,–
S=c1[nH]nc(-c2cc(-c3ccsc3)n[nH]2)n1-c1ccccc1,–,active: 8.91 µM
Cc1ccc(NC(=O)c2cccs2)cc1[N+](=O)[O-],–,active: 14.1 µM
CCOC(=O)Nc1ccc2c(c1)N(C(=O)CN1CCN(C)CC1)c1ccccc1CC2,inactive: -0.199%,–
O=C(Nc1ccc(F)cc1F)c1cc(Cl)sc1Cl,–,active: 14.1 µM

Structure (SMILES),activation,Potency
O=C(Nc1nnc(C2CC2)s1)c1cc(Cl)sc1Cl,–,active: 20 µM
O=C(CSc1nc(-c2ccccc2)nc2c1Cc1ccccc1O2)N1CCCCC1,–,"inconclusive: 12.6 µM [activator, single point]"
CC(C)CN(C(=O)COC(=O)c1c(Cl)ccc(Cl)c1Cl)C1CCS(=O)(=O)C1 (configuration not stated),–,"inconclusive: 14.1 µM [activator, single point]"
COc1cc(Cl)ccc1OCc1cc(C(=O)N2CCN(C)CC2)no1,inactive: 0.192%,–
O=C(CCN1CCC(c2cccs2)=N1)c1cccs1,–,"inconclusive: 22.4 µM [activator, single point]"
CC1C/C(=C/c2cccs2)C(=O)/C(=C/c2cccs2)C1 (configuration not stated),–,"inconclusive: 2.24 µM [activator, partial curve, poor fit]"
CCn1c2ccccc2c2cc(NC(=O)c3ccc(=O)oc3)ccc21,–,"inconclusive: 22.4 µM [activator, single point]"
Cc1ccc2ccc(C3C(=O)c4ccccc4C3=O)nc2c1,–,"inconclusive: 0.891 µM [activator, full curve, poor fit]"
COc1ccc(/C=C/c2ccc3cccc(O)c3n2)c(OC)c1OC,–,active: 22.4 µM
O=C(CSc1ccc(-c2ccco2)nn1)NCc1ccc(F)cc1,–,"inconclusive: 17.8 µM [activator, partial curve, poor fit]"
CCOc1ccccc1NC(=O)CCc1nnc2ccc(NCc3ccco3)nn12,–,"inconclusive: 17.8 µM [activator, single point]"
COc1cccc(C2C=C(c3ccccc3)Nc3c(C(=O)Nc4ccccc4)cnn32)c1OC (configuration not stated),inactive: 4.33%,–
COC(=O)c1cc2c(s1)-c1ccc(OC)cc1CC2,–,"inconclusive: 12.6 µM [activator, partial curve, poor fit]"
Cc1cc(Br)ccc1NC(=O)CCCOc1cc(=O)n(C)c2ccccc12,–,"inconclusive: 12.6 µM [activator, single point]"
Cc1ccc(NC(=O)CN(C)C(=O)c2ccc(-n3cncn3)c([N+](=O)[O-])c2)cc1,inactive: -0.567%,–
O=C(COCc1cc(-c2ccc(F)cc2)on1)Nc1cc(Cl)ccc1O,–,active: 6.31 µM
O=C(N/N=C/C(Br)=C/c1ccccc1)c1ccccc1[N+](=O)[O-],–,"inconclusive: 20 µM [activator, partial curve, poor fit]"
Cc1ccc(-c2noc(-c3ccc(NCc4cccnc4)c([N+](=O)[O-])c3)n2)cc1,inactive: 6.46%,–
O=C(OCC(=O)N1CCCC1)c1c(Cl)cccc1Cl,–,"inconclusive: 12.6 µM [activator, partial curve, poor fit]"
O=C(CSc1nccc(=O)[nH]1)N1N=C2/C(=C/c3ccco3)CCCC2C1c1ccco1 (configuration not stated),–,"inconclusive: 17.8 µM [activator, single point]"
Cc1ccc(C(NC(=O)NCCCN2CCOCC2)=C(Cl)Cl)cc1F,–,"inconclusive: 20 µM [activator, single point]"
CCSc1nc(C)nc2c1oc1ccccc12,–,"inconclusive: 31.6 µM [activator, partial curve, poor fit]"
COc1cc(CNCc2ccc(SC)cc2)cc(OC)c1,inactive: -0.75%,–
N#CC1=C(N)NC(=S)C(C(N)=O)C1c1ccccc1F (configuration not stated),–,"inconclusive: 31.6 µM [activator, single point]"

Structure (SMILES),activation,Potency
Clc1ccc2oc(-c3ccccc3)nc2c1,–,"inconclusive: 12.6 µM [activator, single point]"
NC(=O)[C@@H]1CC2(CC(c3cccc(NC(=O)COc4ccc(Cl)cc4)c3)=NO2)CN1C(=O)COc1ccc(Cl)cc1 (some centres not stated),inactive: -3.06%,–
CC1(C)Cc2c(cnn2-c2ccccc2)-c2c1c1ccccc1n2CC(O)CBr (configuration not stated),–,"inconclusive: 35.5 µM [activator, partial curve, poor fit]"
c1ccc(-c2cc3c(ccc4nonc43)nn2)cc1,–,"inconclusive: 2.82 µM [activator, full curve, poor fit]"
CCN(CC)c1ccc(/C=N/NC(=S)NCc2ccc(OC)cc2)cc1,inactive: 0.176%,–
O=C(NCc1ccco1)c1ccccc1-c1nc(-c2ccc(F)cc2)no1,–,"inconclusive: 3.98 µM [activator, full curve]"
CCOC(=O)N1CCN(c2nc(-c3ccccc3)c3ccccc3n2)CC1,inactive: -0.172%,–
Cc1ccc2nc(-c3ccco3)c(CC3CCCCC3)n2c1,–,"inconclusive: 3.16 µM [activator, full curve, poor fit]"
COc1cccc(NC(=O)c2cc3c(-c4ccc(Cl)cc4)nn(C)c3s2)c1,–,"inconclusive: 2.82 µM [activator, partial curve, poor fit]"
Cc1ccc(-c2csc(NC(=O)c3ccc([N+](=O)[O-])o3)n2)cc1,–,"inconclusive: 2.82 µM [activator, full curve, poor fit]"
O=C1NC(=Nc2ccccc2)S/C1=C\C=C\c1ccco1,–,active: 7.08 µM
N=c1c2ccccc2nnn1-c1ccccc1[N+](=O)[O-],–,active: 14.1 µM
Cc1ccc(O)c(C(=O)C=Cc2ccccc2)c1,–,"inconclusive: 17.8 µM [activator, partial curve, poor fit]"
Oc1cc(-c2ccncc2)cc2cccnc12,–,"inconclusive: 5.62 µM [activator, single point]"
N#Cc1ccccc1CSc1nnc2ccc3ccccc3n12,–,"inconclusive: 12.6 µM [activator, single point]"
CCn1c([N+](=O)[O-])nc2c1c(=O)[nH]c(=O)n2C,–,"inconclusive: 3.16 µM [activator, single point]"
O=C1/C(=C/c2ccccc2O)SC(=S)N1Cc1cccnc1,–,"inconclusive: 3.55 µM [activator, full curve, poor fit]"
Cc1ccc(S(=O)(=O)N2CCOCC2)cc1C(=O)N1CCCCCC1,inactive: -0.977%,–
CSc1ccccc1NC(=O)c1cc(-c2ccco2)on1,–,"inconclusive: 14.1 µM [activator, partial curve, poor fit]"
O=C(Nc1ccc(Nc2ccccc2)cc1)C(Cl)Cl,inactive: 0.708%,–
Nc1ccc(O)c([N+](=O)[O-])c1,–,"inconclusive: 31.6 µM [activator, single point]"
CC(=O)/C=C/c1ccc2ccccc2n1,–,"inconclusive: 3.55 µM [activator, single point]"
CCCn1c(NC(=O)c2ccco2)nc2ccccc21,–,"inconclusive: 1.12 µM [activator, partial curve, poor fit]"
O=C1N/C(=C/c2ccc(N3CCOCC3)o2)C(=O)N1c1ccccc1,–,"inconclusive: 17.8 µM [activator, single point]"

# From PubChem BioAssay AID624171 (National Center for Advancing Translational Sciences (NCATS), 2012)
